Data taken from PMC12698583, “Efficacy of sulfonamides targeting malic enzyme in an animal model of Chagas disease” (Frontiers in Pharmacology, 2025).

Test system: T. cruzi strain Dm28c (DTU TcI)
Assay: In vivo efficacy assay, acute Chagas disease model
Design: species or system Trypanosoma cruzi
Conditions: 20 dpi; for No. of amastigote nests/animal (Mean + SD) / No. of inflammatory foci/animal (Mean + SD): heart histopathology, sulfonamides 150 mg/kg, BNZ 50 mg/kg SID 14 days; for tissue parasite load (in words): heart, colon, spleen, qPCR, 150 mg/kg SID 14 days
Text: For the in vivo assays, female BALB/c mice, aged between 8 and 9 weeks and weighing approximately 25 g, were used.

| SMILES | No. of amastigote nests/animal (Mean + SD) | No. of inflammatory foci/animal (Mean + SD) | tissue parasite load (in words) | cardiac histopathology (in words) (myocardium) |
| --- | --- | --- | --- | --- |
| CC(C)Oc1ccc(NS(=O)(=O)c2cccc(NC(=O)c3cnccn3)c2)cc1 [AC-M110, N-(3-(N-(4-isopropoxyphenyl)sulfamoyl)phenyl)pyrazine-2-carboxamide] | 0.6 ± 0.5 | 51.2 ± 20 | failed to reduce parasite load |  |
| O=C(Cn1ccnc1[N+](=O)[O-])NCc1ccccc1 [BNZ, Benznidazole, reference compound] | 0 | 0.6 ± 0.5 |  | reduced tissue inflammation and eliminated detectable amastigote nests |
| COc1ccc(NS(=O)(=O)c2cccc(NC(=O)c3cnccn3)c2)cc1 [AC-R008, N-(3-(N-(4-methoxyphenyl)sulfamoyl)phenyl)pyrazine-2-carboxamide] | 0.2 ± 0.4 | 55.2 ± 11 | failed to reduce parasite load |  |
